{"source": "the supplement of paper PMC8728848", "test_in_all_cases": "glycan array binding signal (z-score within array); higher = stronger binding", "details_in_all_cases": "glycan notation: IUPAC condensed, linker removed", "key": {"Gal(a1-3)Gal(b1-4)GlcNAc": {"molecular_target": "Gal(a1-3)Gal(b1-4)GlcNAc", "summary_of_the_method": "(§1)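 Glycan array binding is given as a within-array Z-score, which can be read as non-binding when negative. The arrays, 3228 of them, came from the Consortium for Functional Glycomics database and were retained only where the protein sequence was available. Z-scores were averaged across arrays of the same protein sequence at different concentrations or buffers and across linkers.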"}, "[1]": {"molecular_target": "Gal(a1-3)Gal(b1-4)GlcNAc(b1-2)Man", "summary_of_the_method": "as §1"}, "[2]": {"molecular_target": "Gal(a1-3)Gal(b1-4)GlcNAc(b1-2)Man(a1-3)[Gal(a1-3)Gal(b1-4)GlcNAc(b1-2)Man(a1-6)]Man(b1-4)GlcNAc(b1-4)GlcNAc", "summary_of_the_method": "as §1"}, "[3]": {"molecular_target": "Gal(a1-3)Gal(b1-4)GlcNAc(b1-3)GalNAc", "summary_of_the_method": "as §1"}, "[4]": {"molecular_target": "Gal(a1-3)Gal(b1-4)GlcNAc(b1-6)GalNAc", "summary_of_the_method": "as §1"}, "[5]": {"molecular_target": "Gal(a1-3)Gal(b1-4)[Fuc(a1-3)]GlcNAc", "summary_of_the_method": "as §1"}, "[6]": {"molecular_target": "Gal(a1-3)Gal(b1-4)[Fuc(a1-3)]GlcNAc(b1-2)Man(a1-3)[Gal(a1-3)Gal(b1-4)[Fuc(a1-3)]GlcNAc(b1-2)Man(a1-6)]Man(b1-4)GlcNAc(b1-4)GlcNAc", "summary_of_the_method": "as §1"}, "Gal(a1-3)GalNAc": {"molecular_target": "Gal(a1-3)GalNAc", "summary_of_the_method": "as §1"}, "[7]": {"molecular_target": "Gal(a1-3)[Gal(a1-4)]Gal(b1-4)GlcNAc", "summary_of_the_method": "as §1"}, "[8]": {"molecular_target": "Gal(a1-4)Gal(b1-3)GlcNAc(b1-2)Man(a1-3)[Gal(a1-4)Gal(b1-3)GlcNAc(b1-2)Man(a1-6)]Man(b1-4)GlcNAc(b1-4)GlcNAc", "summary_of_the_method": "as §1"}, "Gal(a1-4)Gal(b1-4)Glc": {"molecular_target": "Gal(a1-4)Gal(b1-4)Glc", "summary_of_the_method": "as §1"}, "Gal(a1-4)Gal(b1-4)GlcNAc": {"molecular_target": "Gal(a1-4)Gal(b1-4)GlcNAc", "summary_of_the_method": "as §1"}, "[9]": {"molecular_target": "Gal(a1-4)Gal(b1-4)GlcNAc(b1-2)Man(a1-3)[Gal(a1-4)Gal(b1-4)GlcNAc(b1-2)Man(a1-6)]Man(b1-4)GlcNAc(b1-4)GlcNAc", "summary_of_the_method": "as §1"}, "[10]": {"molecular_target": "Gal(a1-4)Gal(b1-4)GlcNAc(b1-3)Gal(b1-4)Glc", "summary_of_the_method": "as §1"}, "Gal(a1-4)GlcNAc": {"molecular_target": "Gal(a1-4)GlcNAc", "summary_of_the_method": "as §1"}, "Gal(a1-6)Glc": {"molecular_target": "Gal(a1-6)Glc", "summary_of_the_method": "as §1"}, "Gal(b1-2)Gal": {"molecular_target": "Gal(b1-2)Gal", "summary_of_the_method": "as §1"}, "Gal(b1-3)Gal": {"molecular_target": "Gal(b1-3)Gal", "summary_of_the_method": "as §1"}, "Gal(b1-3)Gal(b1-4)GlcNAc": {"molecular_target": "Gal(b1-3)Gal(b1-4)GlcNAc", "summary_of_the_method": "as §1"}, "Gal(b1-3)GalNAc": {"molecular_target": "Gal(b1-3)GalNAc", "summary_of_the_method": "as §1"}, "[11]": {"molecular_target": "Gal(b1-3)GalNAc(a1-3)[Fuc(a1-2)]Gal(b1-4)Glc", "summary_of_the_method": "as §1"}, "[12]": {"molecular_target": "Gal(b1-3)GalNAc(a1-3)[Fuc(a1-2)]Gal(b1-4)GlcNAc", "summary_of_the_method": "as §1"}, "Gal(b1-3)GalNAc(b1-3)Gal": {"molecular_target": "Gal(b1-3)GalNAc(b1-3)Gal", "summary_of_the_method": "as §1"}, "[13]": {"molecular_target": "Gal(b1-3)GalNAc(b1-3)Gal(a1-4)Gal(b1-4)Glc", "summary_of_the_method": "as §1"}, "[14]": {"molecular_target": "Gal(b1-3)GalNAc(b1-4)Gal(b1-4)Glc", "summary_of_the_method": "as §1"}, "[15]": {"molecular_target": "Gal(b1-3)GalNAc(b1-4)[Neu5Ac(a2-3)]Gal(b1-4)Glc", "summary_of_the_method": "as §1"}, "Gal(b1-3)GlcNAc": {"molecular_target": "Gal(b1-3)GlcNAc", "summary_of_the_method": "as §1"}, "[16]": {"molecular_target": "Gal(b1-3)GlcNAc(a1-3)Gal(b1-4)GlcNAc", "summary_of_the_method": "as §1"}, "[17]": {"molecular_target": "Gal(b1-3)GlcNAc(a1-6)Gal(b1-4)GlcNAc", "summary_of_the_method": "as §1"}, "Gal(b1-3)GlcNAc(b1-2)Man": {"molecular_target": "Gal(b1-3)GlcNAc(b1-2)Man", "summary_of_the_method": "as §1"}, "[18]": {"molecular_target": "Gal(b1-3)GlcNAc(b1-2)Man(a1-3)[Gal(b1-3)GlcNAc(b1-2)Man(a1-6)]Man(b1-4)GlcNAc(b1-4)GlcNAc", "summary_of_the_method": "as §1"}, "[19]": {"molecular_target": "Gal(b1-3)GlcNAc(b1-2)Man(a1-3)[Gal(b1-3)GlcNAc(b1-2)Man(a1-6)]Man(b1-4)GlcNAc(b1-4)[Fuc(a1-6)]GlcNAc", "summary_of_the_method": "as §1"}, "[20]": {"molecular_target": "Gal(b1-3)GlcNAc(b1-2)Man(a1-3)[GlcNAc(b1-4)][Gal(b1-3)GlcNAc(b1-2)Man(a1-6)]Man(b1-4)GlcNAc(b1-4)GlcNAc", "summary_of_the_method": "as §1"}, "[21]": {"molecular_target": "Gal(b1-3)GlcNAc(b1-2)[Gal(b1-3)GlcNAc(b1-6)]Man(a1-6)[Gal(b1-3)GlcNAc(b1-2)Man(a1-3)]Man(b1-4)GlcNAc(b1-4)GlcNAc", "summary_of_the_method": "as §1"}, "[22]": {"molecular_target": "Gal(b1-3)GlcNAc(b1-3)Gal(b1-3)GlcNAc", "summary_of_the_method": "as §1"}, "[23]": {"molecular_target": "Gal(b1-3)GlcNAc(b1-3)Gal(b1-4)Glc", "summary_of_the_method": "as §1"}, "[24]": {"molecular_target": "Gal(b1-3)GlcNAc(b1-3)Gal(b1-4)GlcNAc", "summary_of_the_method": "as §1"}}, "note": "The other results are listed elsewhere or left out.", "data": [{"binder": "PkBDPgamma (Plasmodium knowlesi) (protein) SAINQIFLQNNVMDKCNDKRKRGERDWDCPTEKDVCIPDRRYQLCMMEITNLVDTDTHFHSDIIFRKSYSRRRLIYDVGGRGDLLLKKYNNVYSEDLCKDIKWSLQDFGDIIMGTDMEGIGYSLVVQNNLRSIFGTGTSAELDRKKWWNDHKKDIWKAMILSVKEKNRYSAWNCKEDVQIKVEPQIYRWIREWGRDYMSEFREQRRKLNEKCEDKLYYSTMLICTLPPCNNACKSYDEWITGKKKQWDVLSTKFSSVKKAQKIETENIARAYDILKQELNGFNEVTFENEINKRDKLYNYFCVCIVQEARKNTQENVKNVGSGVESKAPSSNPINEAVKSSSGEGKVQEDSAHRSVNEGEGKSSTNEADPGSQPGAAASGGGSGGGTGGGVDLAPQMLRELQETNAALQDVRELLRQQVKEITFLKNTVMECDACGGPLDRNLPPLAPLGPTGGWSHPQFEK", "values": [{"measurement": "glycan array binding signal (z-score)", "setting": "Gal(a1-3)Gal(b1-4)GlcNAc", "result": -0.331}, {"measurement": "glycan array binding signal (z-score)", "setting": "[1]", "result": -0.252}, {"measurement": "glycan array binding signal (z-score)", "setting": "[2]", "result": -0.202}, {"measurement": "glycan array binding signal (z-score)", "setting": "[3]", "result": -0.056}, {"measurement": "glycan array binding signal (z-score)", "setting": "[4]", "result": 0.003}, {"measurement": "glycan array binding signal (z-score)", "setting": "[5]", "result": 0.021}, {"measurement": "glycan array binding signal (z-score)", "setting": "[6]", "result": -0.045}, {"measurement": "glycan array binding signal (z-score)", "setting": "Gal(a1-3)GalNAc", "result": -0.186}, {"measurement": "glycan array binding signal (z-score)", "setting": "[7]", "result": -0.071}, {"measurement": "glycan array binding signal (z-score)", "setting": "[8]", "result": -0.302}, {"measurement": "glycan array binding signal (z-score)", "setting": "Gal(a1-4)Gal(b1-4)Glc", "result": -0.246}, {"measurement": "glycan array binding signal (z-score)", "setting": "Gal(a1-4)Gal(b1-4)GlcNAc", "result": 0.478}, {"measurement": "glycan array binding signal (z-score)", "setting": "[9]", "result": 0.474}, {"measurement": "glycan array binding signal (z-score)", "setting": "[10]", "result": -0.346}, {"measurement": "glycan array binding signal (z-score)", "setting": "Gal(a1-4)GlcNAc", "result": -0.303}, {"measurement": "glycan array binding signal (z-score)", "setting": "Gal(a1-6)Glc", "result": -0.561}, {"measurement": "glycan array binding signal (z-score)", "setting": "Gal(b1-2)Gal", "result": -0.181}, {"measurement": "glycan array binding signal (z-score)", "setting": "Gal(b1-3)Gal", "result": 0.074}, {"measurement": "glycan array binding signal (z-score)", "setting": "Gal(b1-3)Gal(b1-4)GlcNAc", "result": -0.413}, {"measurement": "glycan array binding signal (z-score)", "setting": "Gal(b1-3)GalNAc", "result": -0.339}, {"measurement": "glycan array binding signal (z-score)", "setting": "[11]", "result": -0.236}, {"measurement": "glycan array binding signal (z-score)", "setting": "[12]", "result": 0.223}, {"measurement": "glycan array binding signal (z-score)", "setting": "Gal(b1-3)GalNAc(b1-3)Gal", "result": -0.05}, {"measurement": "glycan array binding signal (z-score)", "setting": "[13]", "result": 0.291}, {"measurement": "glycan array binding signal (z-score)", "setting": "[14]", "result": 0.593}, {"measurement": "glycan array binding signal (z-score)", "setting": "[15]", "result": -0.399}, {"measurement": "glycan array binding signal (z-score)", "setting": "Gal(b1-3)GlcNAc", "result": -0.062}, {"measurement": "glycan array binding signal (z-score)", "setting": "[16]", "result": 0.033}, {"measurement": "glycan array binding signal (z-score)", "setting": "[17]", "result": -0.036}, {"measurement": "glycan array binding signal (z-score)", "setting": "Gal(b1-3)GlcNAc(b1-2)Man", "result": 0.518}, {"measurement": "glycan array binding signal (z-score)", "setting": "[18]", "result": 0.035}, {"measurement": "glycan array binding signal (z-score)", "setting": "[19]", "result": 0.129}, {"measurement": "glycan array binding signal (z-score)", "setting": "[20]", "result": 0.621}, {"measurement": "glycan array binding signal (z-score)", "setting": "[21]", "result": 0.809}, {"measurement": "glycan array binding signal (z-score)", "setting": "[22]", "result": -0.37}, {"measurement": "glycan array binding signal (z-score)", "setting": "[23]", "result": -0.254}, {"measurement": "glycan array binding signal (z-score)", "setting": "[24]", "result": -0.013}]}]}
